# Measurements as given in PubChem BioAssay (NCI).
# A structure can be active in one record and inactive in another.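 Growth was measured after 48 h exposure to one concentration of compound in 96-well plates. Values under 10 count as active.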 Some entries of the source have several records that differ or are many. The other results are left out here. An entry can have further records. These are repeated runs of one drug, at the concentration stated with the values; one value stands for one run. Signs of the kind (2×) stand for listed records that agree.
# Test system: CCRF-CEM leukemia
# Assay: NCI-60 one-dose screen, 48 h (100 = growth as untreated, 0 = no growth, -100 = all killed)
smiles,measurement,setting,value
COc1cccc2c1C(=O)c1c(O)c3c(c(O)c1C2=O)C[C@@](O)(C(=O)CO)C[C@@H]3OC1CC(N)C(O)C(C)O1 (stereo not given in full),growth,"0.25 µM, runs of 2015","inactive: 35.1, 42.1, 35.5, 29.5, 34.3 (2×), 35.4, 33.3, 32.8, 35.9, 36.6, 39.1, 40.2 (2×), 27.2 (2×), 28.8 (2×), 37.6, 26.8, 24.9 (2×), 68.1, 66.1, 13, 12.3, 17.2, 14.3, 22.2 (2×), 39.4, 17.3, 16, 10.5, 14.1, 20.2, 24, 21.7 (2×), 37.8, 21.9, 28 (3×), 18.9, 32.2, 19.7, 17.9, 22.5, 18.6, 30.4, 52.9, 24.4, 21.5, 24.3, 25, 26.9, 15.7, 18, 22.9, 20.8, 25.3, 18.8, 27.7, 33.4, 18.1, 23.6, 11.9, 20.6%"
same,growth,"0.25 µM, runs of 2016","inactive: 26 (2×), 27.7, 23.3 (2×), 23.6 (2×), 31.9, 25.7 (2×), 25.4, 32.2, 36.4, 33.5, 38.9, 32.4, 40, 24, 27.4 (2×), 31.6, 26.1, 26.9 (2×), 17.9 (2×), 17.5, 25.1, 24.9 (2×), 20.2, 18.5, 23.7 (2×), 22.3, 23 (2×), 18.6, 19.2, 25.8 (2×), 22, 40.1, 21.4, 36.2, 18 (2×), 15.8, 24.6, 22.1, 21.8, 22.2, 29.7, 27, 18.9, 30.1, 27.3, 24.3 (2×), 32.9, 26.4, 29.3, 28.8, 28, 27.9, 30.2, 31.1, 16.8, 27.6, 28.5, 33.7, 32, 24.5, 25, 30.7, 34.6%"
same,growth,"0.25 µM, runs of 2017","inactive: 40.9, 38.2, 31.6, 25.3, 22, 23.8, 25.5, 16.2, 23.6, 20.6 (2×), 25.6 (2×), 23.1, 27.6, 27, 22.6 (3×), 20.3 (3×), 24.7, 20.8 (2×), 22.5 (2×), 20.5, 17.7 (2×), 15.5 (2×), 22.3, 15, 16.3, 14.6, 15.8, 19, 18.9, 22.1 (2×), 20.7, 14.2, 18.6 (2×), 26.2, 25.1, 26.9, 24.9 (2×), 29.2, 26.1, 27.4, 25.8, 25.4 (2×), 16.5, 15.3, 21.2, 22.2, 26.8, 18.3, 20.2, 21.8, 18.1, 14, 27.7, 26, 18.8, 15.2, 17.2, 16.8, 12.1% and active: 7.99%"
same,growth,"0.25 µM, runs of 2018","inactive: 21.6 (2×), 22.3, 14, 14.2 (2×), 11, 13.6, 12.3, 15.1, 11.9, 11.5, 26.5, 11.1, 16.2, 16.8, 18.1, 19, 19.2 (2×), 25, 22.5, 24.7, 15.2, 20.5 (2×), 24.3, 20.7 (3×), 22.6, 26.4, 25.3, 18.9 (2×), 24, 26.1, 15, 20, 24.2, 21.8, 17.9, 27.2, 15.9, 21.1, 35.5, 31, 12.7% and active: 9.14%"
same,growth,"0.25 µM, runs of 2019","inactive: 23, 22.1, 19.2 (2×), 25, 27, 29.2 (2×), 13.3, 12, 20.2 (2×), 15.3, 19.7 (3×), 21.9, 23.8 (2×), 21.5, 21.6, 28.9, 26.2, 27.2, 23.7, 28, 23.1, 24, 23.2, 20, 27.1, 24.5, 31, 27.7, 20.6, 25.1, 20.3, 12.3, 14.8% and active: 9.74%"
same,growth,"0.25 µM, runs of 2020","active: 3.91%, 9.7% and inactive: 14.6, 16.5, 17.2, 18.1, 19.4, 21.4, 17.9, 20.8, 20 (2×), 13.6, 18.8, 15.7, 13.9, 26.4, 21.6, 23.7, 21.5, 24.6, 23.6, 12.2, 23.3%"
same,growth,"0.25 µM, runs of 2021","inactive: 10.2, 20.5, 18.8 (2×), 20.8 (3×), 20.9 (2×), 21.1, 21.4, 20.1, 22.5, 19.4, 20.2, 22.3, 20.7, 19.8 (3×), 17.8, 14.8, 10.7, 23 (2×), 25.5, 18.6 (2×), 20.3, 26.2, 19.2, 22.2, 25, 24.5, 11.6, 13.2, 18.1, 13.1, 15.3, 24.9, 17.5, 27.3, 27.8, 26.9% and active: 7.81%"
same,growth,"0.25 µM, runs of 2022","active: 6.04, 8.5, 6.66, 1.2, 8.04, 1.81, 9.42, 8.14% and inactive: 32.2, 39.4, 15.1, 23.2, 24.6, 21.1, 29.8, 27.2, 26.7, 18.6, 25, 27.6, 28.8, 12.4, 28.5, 48, 10.7, 15.9%"
same,growth,"25 µM, runs of 1991","active: -42, -25.4, -34.7, -24.8, -32, -38.7, -29.2, -26.7, -40, -11.5, -27.7, -24.2, 3.9, 5.32, -26, -26.9, -54% and inactive: 11.4%, 12.2%"
same,growth,"25 µM, runs of 1992","active: -8.86, -8.2, 0.899, -30.3 (2×), -25.5, 3.25, -23.6 (2×), -15.7 (2×), -17.7, -25.2, -34.4, -20.3 (2×), -35.7 (2×), -43.1, -20.8, -21.9, -22.2, -39.4, -32.6 (2×), -37.6, -15.9, -11.6, -36, -67, 2.04, -17.5, 3.98, -48.6, -71.7, -43.2, -55.4, -16.7, -13.2, -38.3, -23.1, -28.7 (2×), -27.2 (2×), 6.58, -49.5, -63.1, -45 (2×), -41.2, 2.82, -7.22, -21.4, -37, 3.33, -28.5, -40.5, -25.9, -23.8, -31.4, -27.9, -25.4, -31.3, -11.8, -5.77, -24.7, -6.09, -28.6, -44.8 (2×), -5.16, -39.5, -29.7, -33.1, -53.9, -7.73, -24.2, -34.5, -28.9, -8.14, -43.9, -7.99, -33.9 (2×), 3.34, -8.9, -27.4, -17.9, -27.8, -5.17, -36.6 (2×), -37.2, -9.89, -26.2, -36.9, -34.8, -22, -2.85, -17.2, -19.8, -24, -41.6, -22.5, -28.4, -3.88, -29.3, -23.2, -23.5, 4.45, -21.7, -33.6% and inactive: 18.8, 14.3, 11.4 (2×), 25, 12.5, 39.9, 14, 40%"
same,growth,"25 µM, runs of 1993","active: -21, -5.17, -3.76, -41.3, -20, -34, -4.18, 7.09, -45.7, -38.6 (2×), -2.97, -21.6, -55.8, -0.334, -40.1, -33.5, -25.3, -20.9, -65.1, -27.9, -37.6, -31.1, -26.8, -47.9, -22.9, -23.5, -49.4, -30.6, -37.5, -34.9, -19.4, -25.5, -35, -28.5, -7.35, -48, 0.27% and inactive: 26.5, 13.4, 47.6, 68.4, 16.5, 26.8%"
same,growth,"25 µM, runs of 1994","active: -18.3, -32, 5.14, -2.38, -25.8, 9.9, -20.7, -17.1, -48.2, -22.9, -54.8, -54.6, -37.1, -27.8, -0.906, -2.25, -45.5, -4.01, 9.94, -33.9, 0.0575, -21.3, -41.6, -50.5% and inactive: 48, 14.8, 26.7, 25, 13.6%"
same,growth,"25 µM, runs of 1995","active: -42.6, 0.604, 9.96, -17.9, -4.28, -57.6, -21.1, -20.9, -17.7, -40.8, 0.445, 2.99, -14.7, -27.1, -8.75, -12.8, -26.8, -23, 2.96, -36.9, -16.4, -19.5, -10.4, -38.2, -47, 0.64, 6.12, -9.38, -22, -24.4, 7.9, -59.5, -50.8, -38.5, -49.7, -56.8, -32.8, -51.9, -4.35% and inactive: 10.3%"
same,growth,"25 µM, runs of 1996","active: -31.9, -50.6, -58.9, -40, -6.59, 3.13, -5.73, -23.3, -40.9, -11.4, -35.5, -14.5, -37.8, -64.6, -29.3, -19.3, -51.9, -9.85, -15.4, -53.8, -40.4, 5.79, -45.4, -26.7, -17, -48.8, -56.1, -31.2, -36.1, -21.9, -49.9, -44.5, 9.67, -35.1, 0.896, -23.9, -37.5, 9.34, -100, -34.6, 5.43% and inactive: 18.1, 11.1, 77.3, 27.5, 12.1, 13.4, 68.4%"
same,growth,"25 µM, runs of 1997","active: -29.7, -19.7, -22.5, -45.7, -31.8, -69.1, -51.1, -17.5, -0.524, -19.1, 7.61, -36.2, -7.67, -46.2, -11.1, 5.55, -34.3, 1.34, -45.8, 1.44, -1.04, -22.1, 0.198, -78, -12.2, -27.8, 1.78, 4.21, -27.2, -4.64, 2.95, -10.3, -58.5% and inactive: 15.8%, 78.2%"
